System: pro- and anti-apoptotic genes in macrophages
Assay: Expression profiling of apoptosis-linked genes (Codelink Mouse Uniset 1 / Affymetrix U74A microarrays)
Conditions: 1 μM each, 16 h

O=S(=O)(c1ccccc1)N(CC(F)(F)F)c1ccc(C(O)(C(F)(F)F)C(F)(F)F)cc1 [T1317]
effects on expression of genes with functional annotations linked to apoptosis: relatively modest effects

Reference: patent publication US20090111786A1, “Compounds that Prevent Macrophage Apoptosis and Uses Thereof” (priority 2004, published 2009)
